Source: ChEMBL document CHEMBL4888484, “Replenishing the malaria drug discovery pipeline: Screening and hit evaluation of the MMV Hit Generation Library 1 (HGL1) against asexual blood stage Plasmodium falciparum ,using a nano luciferase reporter read-out” (2022)
The whole screen tested about 150,000 compounds, of which about 540 (0.36%) showed an effect of 50% or more. Some of the results follow.

Each compound was assayed on Plasmodium falciparum (assay: Primary screen in NF54 nanoGlo assay, in single point, at 2uM, 72h; a lower Z score goes with more inhibition). Conditions: timepoint 72 hour.
Format: functional, Erythrocyte

| SMILES | % Inhibition [%] | Z score |
| --- | --- | --- |
| CC(C)CN(CC(=O)N1CCc2sccc2[C@@H]1COc1ccccc1)C(=O)Nc1cccc(Cl)c1 | -6 | 0.54 |
| CCC1(CC)Oc2ccc(NC(=O)N[C@@H]3CNC(=O)C3)cc2O1 | -8 | 1.2 |
| NC(=O)c1sccc1NC(=O)[C@H]1CCOC2(CCCC2)C1 | -9 | 1.98 |
| CCOc1ccc2c(c1)[C@@H](NC(=O)c1cn(-c3ccc(F)cc3)nn1)CCO2 | -5 | 0.77 |
| O=C(Nc1ccc(CN(C(=O)c2ccc[nH]2)C2CC2)cc1)c1ccc[nH]1 | -14 | 1.56 |
| O=S(=O)(NCc1ccc(-c2ccoc2)cc1)c1ccc(-n2cccn2)cc1 | -10 | 1.17 |
| CN(CCS(=O)(=O)N1CCCCC1)S(=O)(=O)c1cccs1 | -5 | 0.65 |
| CCc1ncsc1C(=O)N1CCCN(C)c2ccc(F)cc21 | -15 | 1.52 |
| COc1ccccc1CNC(=O)[C@]1(C)Cn2nc(-c3ccccc3)cc2C(=O)N1c1ccc(F)cc1 | -10 | 1.6 |
| COCCn1c(-c2ncn(C)n2)nnc1N1CCCC(F)(F)C1 | -6 | 0.85 |
| CC(C)N1CCC(NC(=O)CO)C1c1ccc(Cl)c(F)c1 (stereo unspecified) | 6 | -0.76 |
| COc1cc(C)c(NC(=O)N(C)[C@@H]2CCC[C@@H]2N2CCC(OC)C2)c(C)c1C (stereo partly specified) | -6 | 0.98 |
| Cc1cc(=O)c(C(=O)NC2CCN(Cc3ccccc3)CC2)c(CC2CCCC2)n1C | 7 | -0.81 |
| O=C(O)c1cnc(NCC2CCN(Cc3ccncc3)CC2)c(Cl)c1 | -4 | 0.39 |
| CN(c1cccc(C(=O)NCCCN2CCOCC2)c1)S(C)(=O)=O | -6 | 0.87 |
| Cc1ccncc1S(=O)(=O)N(C)C(C)(C)C#N | -10 | 1.11 |
| O=C(O)Cc1cccc(NC(=O)C2C3Cc4ccccc4C32)c1 (stereo unspecified) | 33 | -4.42 |
| NC(=O)c1csc(N2CC(c3ccncc3)C2)n1 | -1 | 0.27 |
| CCc1nnc(NC(=O)COCC2CC2)s1 | -7 | 0.9 |
| CC(=O)c1ccc(CNc2ccnc(C(C)C)n2)nc1C | -21 | 3.26 |
| CC1(C)CC(NC(=O)CCc2nc(-c3ccc4cc[nH]c4c3)no2)CC(C)(C)N1 | 0 | -0.02 |
| CC[C@H](C)[C@@H]1NC(=O)[C@H](Cc2ccc(OC)cc2)NC1=O | -4 | 0.66 |

| SMILES | % Inhibition [%] | Z score |
| --- | --- | --- |
| c1ccc(CNc2nc(-c3ccc4nsnc4c3)cs2)cc1 | -1 | 0.22 |
| Cc1cnc(N2CC(=O)N[C@@H](C)C2)nc1N(C)C | -6 | 1.16 |
| CN(C)c1ccnc(N(C)C2CCC2O)n1 (stereo unspecified) | -15 | 1.86 |
| COc1ccc(OC)c(Nc2c(-c3c[nH]c4ccccc34)nc3cnccn23)c1 | -2 | 0.3 |
| CN(CC(=O)Nc1ncccn1)S(=O)(=O)c1ccc2c(c1)OCCCO2 | 33 | -4.48 |
| Cc1nc(Cc2nc(-c3cccc(OCCN(C)C)c3)no2)cs1 | 10 | -0.99 |
| CCS(=O)(=O)N1CCC2(CCO2)CC1 | -8 | 0.67 |
| CCCCn1nc(C(=O)N2CCc3ccccc32)ccc1=O | -16 | 3.11 |
| C[C@@H]1CN(C(=O)c2nc3ccc(Cl)cn3c2CNC(C2CC2)C2CC2)C[C@H](C)O1 | -15 | 1.65 |
| Cn1nnc(CN2C[C@@H]3[C@H](C2)[C@H]3NC(=O)c2cccn(C(C)(C)C)c2=O)n1 | -10 | 1.98 |
| Cc1cc(C2OCCO2)c(C)cc1CN1CCC[C@@H]1CO | 0 | -0.06 |
| Cn1nccc1-c1ccccc1CN1CCC(C)(C)S(=O)(=O)CC1 | -1 | 0.14 |
| COc1ncnc(N)c1CNCC1(Cc2ccccc2)CC1 | -4 | 0.79 |
| CCN(CC(O)COC)CC1CC(c2ccc(Cl)cc2)=NO1 (stereo unspecified) | 1 | -0.14 |
| CN(Cc1ccccc1)C(=O)c1ccc(CS(=O)(=O)Cc2ccc(Cl)cc2)o1 | -6 | 0.84 |
| OCCn1nc(C2(c3ccccc3)CC2)nc1Cc1ccc(F)cc1Cl | 11 | -1.52 |
| CO[C@H](C(=O)NCc1c(C(=O)O)sc2ccccc12)C1CC1 | 9 | -1.53 |
| CCCOc1ccccc1CNC(C)(C)C | 4 | -0.8 |
| CCCCCN(C)S(=O)(=O)[C@H]1CCS(=O)(=O)C1 | -15 | 1.75 |
| Cc1nc(-c2ccc(NC(=O)[C@@H](F)C(F)(F)F)cc2)[nH]c1C | 22 | -2.9 |
| Cc1ccc(S(=O)(=O)N2CCN(C(=O)N3CCOCC3)C2)cc1 | -6 | 0.91 |
